Assay results taken from publication PMC4336329 (PLoS ONE, 2015).
Screen size: about 310,000 compounds; about 14,000 (4.5%) showed an effect of 50% or more. Effects have a minus sign here. The list shows a part of the results.

biological target: human ether-à-go-go-related gene (hERG) potassium channel (human, UniProt Q12809); assay: primary screen, population patch clamp on CHO cells stably expressing hERG
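Further: peak tail current of the secondary pulse compared with the same well before compound.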

Chain of human ether-à-go-go-related gene (hERG) potassium channel (Q12809 whole entry, looked up): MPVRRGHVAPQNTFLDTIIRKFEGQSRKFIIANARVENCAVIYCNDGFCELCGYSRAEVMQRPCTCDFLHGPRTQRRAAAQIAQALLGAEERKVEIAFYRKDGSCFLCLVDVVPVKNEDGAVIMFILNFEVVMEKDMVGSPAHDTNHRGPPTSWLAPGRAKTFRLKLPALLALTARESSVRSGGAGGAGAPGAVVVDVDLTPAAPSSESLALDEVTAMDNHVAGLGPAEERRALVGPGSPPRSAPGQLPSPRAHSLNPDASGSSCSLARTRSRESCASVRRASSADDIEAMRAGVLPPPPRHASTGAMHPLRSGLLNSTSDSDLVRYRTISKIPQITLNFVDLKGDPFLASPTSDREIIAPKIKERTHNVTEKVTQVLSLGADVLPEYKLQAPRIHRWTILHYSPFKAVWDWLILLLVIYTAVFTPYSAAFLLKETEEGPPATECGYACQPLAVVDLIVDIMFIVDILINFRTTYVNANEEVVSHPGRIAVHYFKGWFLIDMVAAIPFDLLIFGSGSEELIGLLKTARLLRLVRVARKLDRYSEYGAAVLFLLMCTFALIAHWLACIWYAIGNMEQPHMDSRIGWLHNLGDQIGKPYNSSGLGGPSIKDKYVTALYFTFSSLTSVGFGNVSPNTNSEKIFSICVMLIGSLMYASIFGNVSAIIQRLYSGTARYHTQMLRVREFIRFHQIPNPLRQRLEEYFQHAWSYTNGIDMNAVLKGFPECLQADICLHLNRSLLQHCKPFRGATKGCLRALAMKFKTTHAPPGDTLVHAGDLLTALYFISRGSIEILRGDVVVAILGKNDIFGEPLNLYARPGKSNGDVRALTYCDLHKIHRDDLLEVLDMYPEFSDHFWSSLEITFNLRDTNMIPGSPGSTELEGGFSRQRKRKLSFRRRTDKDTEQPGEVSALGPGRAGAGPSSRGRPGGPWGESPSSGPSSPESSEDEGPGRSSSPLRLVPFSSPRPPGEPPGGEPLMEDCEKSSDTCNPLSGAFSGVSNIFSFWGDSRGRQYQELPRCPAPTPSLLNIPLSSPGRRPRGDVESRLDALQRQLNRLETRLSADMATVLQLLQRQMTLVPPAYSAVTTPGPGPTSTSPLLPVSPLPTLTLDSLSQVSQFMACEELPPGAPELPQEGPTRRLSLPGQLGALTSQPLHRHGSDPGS

Going from `Cc1ccc(Oc2ncccc2NC(=O)CC2(CC(=O)O)CCCC2)c2c1CCC2` to `CCN1CCc2c(OCC(=O)Nc3cccc(C)c3)cccc2C1=O`, the “hERG current change (%, negative = inhibition) at 10uM” value rises from -10.8% to -9.92%.

Going from `COc1ccc(OC)c(NC(=O)c2cc(S(=O)(=O)N3CCCCC3)c[nH]2)c1` to `COc1ccc(S(=O)(=O)N2CC(C)OC(C)C2)cc1C(=O)N1CCCCC1` (stereo not drawn), the “hERG current change (%, negative = inhibition) at 10uM” value falls from 14.6% to 6.93%.

First: Cc1cc(Cl)ccc1Oc1nc(-c2ccc(F)cc2)ccc1C#N
Second: Cc1ccc(-c2noc(-c3ccccc3Br)n2)cc1
The “hERG current change (%, negative = inhibition) at 10uM” value of the first is lower: -27.7% for the first, 20.5% for the second.

Compared with `COc1ccc(NC(=O)CCCn2c(=O)oc3ccccc32)cc1Cl`, `O=C(CCn1c(=O)oc2ccccc21)Nc1ccc(C(=O)O)cc1` is lower in “hERG current change (%, negative = inhibition) at 10uM” value: -12.9% for the first, -45% for the second.

Going from `Cc1nc2sc(C(c3cccs3)N3CCN(Cc4ccccc4)CC3)c(O)n2n1` (stereo not drawn) to `CC(NC(=O)CN1CCN(c2ccc(Cl)cc2)CC1)c1ccccc1` (stereo not drawn), the “hERG current change (%, negative = inhibition) at 10uM” value rises from -81.2% to -42.7%.

Going from `CCCNc1nc(N2CCCC2)nc(N2CCCC2)n1` to `CCC(C)NC(=O)Cn1cc(S(=O)(=O)N2CCCC2)c(S(=O)(=O)N2CCCC2)c1` (stereo not drawn), the “hERG current change (%, negative = inhibition) at 10uM” value rises from -28.9% to 22.7%.

First: O=C(O)C1=NOC(CNc2ncc(C(F)(F)F)cc2Cl)C1 (stereo not drawn)
Second: Cc1cc(C)c2cc(C(=O)N3CCN(c4ncccc4C(F)(F)F)CC3)[nH]c2c1
The “hERG current change (%, negative = inhibition) at 10uM” value of the first is higher: 20.8% for the first, -2.36% for the second.

Going from `CC(=O)Nc1ccccc1C(=O)C(=O)Nc1cccc(C(=O)NCc2ccccc2)c1` to `CCC(NC(=O)c1ccccc1NC(=O)c1ccccc1)C(=O)NNC(=O)CSc1nc2ccccc2o1` (stereo not drawn), the “hERG current change (%, negative = inhibition) at 10uM” value rises from -32.6% to -3.16%.

Going from `O=C(O)c1cccnc1SCc1ccccc1Cl` to `O=C(O)CSc1ccc2ccccc2n1`, the “hERG current change (%, negative = inhibition) at 10uM” value rises from 1.93% to 10.9%.

First: CCOC(=O)c1c(C)[nH]c(C(=O)OCC(=O)N(CC(C)C)c2c(N)n(Cc3ccccc3)c(=O)[nH]c2=O)c1C
Second: CCOC(=O)Cn1nnnc1C(CC)N(Cc1ccccc1)Cc1cc2cc(C)ccc2[nH]c1=O (stereo not drawn)
The “hERG current change (%, negative = inhibition) at 10uM” value of the first is lower: -17.9% for the first, 7.64% for the second.

First: COc1ccc(C2C(C#N)=C(SC)NC3=C2C(=O)CC(C)(C)C3)cc1 (stereo not drawn)
Second: CC1(C)CC(=O)C2=C(C1)OC(N)=C(C#N)C2c1ccsc1 (stereo not drawn)
The “hERG current change (%, negative = inhibition) at 10uM” value of the first is higher: -15.4% for the first, -15.6% for the second.

First: O=C(CCN1C(=O)/C(=C/c2ccccc2Cl)SC1=S)NNC(=O)c1ccccc1O
Second: O=C(CCN1C(=O)c2ccccc2S1(=O)=O)Nc1ccc(F)cc1F
The “hERG current change (%, negative = inhibition) at 10uM” value of the first is lower: -6.37% for the first, 1.36% for the second.

Compared with `CCN(CC)CCCNC(=S)N(Cc1cccnc1)Cc1cc2cc(C)ccc2[nH]c1=O`, `CCc1cccc(C)c1NC(=S)NCc1ccccc1` is higher in “hERG current change (%, negative = inhibition) at 10uM” value: -5.72% for the first, 0.76% for the second.

First: CN(Cc1cccc(Cl)c1Cl)c1ccc(S(=O)(=O)N2CCCCC2)cc1[N+](=O)[O-]
Second: O=C(c1cccc(S(=O)(=O)N2CCCCC2)c1)N1CCc2ccccc21
The “hERG current change (%, negative = inhibition) at 10uM” value of the first is higher: 5.82% for the first, -29.5% for the second.

First: CCCOC(=O)c1c(NC(=O)C2C3C=CC(C3)C2C(=O)O)sc2c1CCC(C)C2 (stereo not drawn)
Second: CCOC(=O)c1c(NC(=O)C2=COCCO2)sc2c1CCN(C(=O)OC)C2
The “hERG current change (%, negative = inhibition) at 10uM” value of the first is lower: -59.3% for the first, 4.05% for the second.

First: CCn1c(O)c(C(C#N)=C2N=c3ccccc3=N2)c2ccccc21
Second: Cc1cccc(OCCCn2c(=O)oc3ccccc32)c1
The “hERG current change (%, negative = inhibition) at 10uM” value of the first is lower: -6.56% for the first, -1.72% for the second.

Going from `CN(C(=O)COC(=O)COc1ccccc1Cc1ccccc1)c1ccccc1` to `Cc1ccccc1CN1[C@@H](Cc2ccccc2)COCCS1(=O)=O`, the “hERG current change (%, negative = inhibition) at 10uM” value rises from -12% to -9.87%.

Compared with `CCOc1ccc(NC(=O)CN(C)C(=O)CC2CCCCC2)cc1OCC`, `CCOc1ccc(NC(=O)NCCCn2c(C)nc3cc(C)c(C)cc32)cc1` is lower in “hERG current change (%, negative = inhibition) at 10uM” value: -19.8% for the first, -55.5% for the second.

Going from `CC(Oc1ccccc1)c1nnc(N)s1` (stereo not drawn) to `NC(=O)CCCc1nc(-c2ccccc2)no1`, the “hERG current change (%, negative = inhibition) at 10uM” value rises from -1.12% to 6.27%.

Going from `Cc1ccc(S(=O)Cc2ccc(C(=O)N3CCN(C(=O)c4ccco4)CC3)o2)cc1` (stereo not drawn) to `Cc1ccc(-c2nnc(SCC(=O)N3CCOCC3)nc2-c2ccc(C)cc2)cc1`, the “hERG current change (%, negative = inhibition) at 10uM” value falls from -1.46% to -30.3%.

Going from `COc1ccc(C(=O)N2c3ccc(F)cc3CCC2C)cc1OC` (stereo not drawn) to `COc1cc(OC)cc(-c2nnc(SCc3ccc(C(=O)O)cc3)o2)c1`, the “hERG current change (%, negative = inhibition) at 10uM” value falls from 0.433% to -71.6%.

Compared with `COC(=O)C1CCN(C(=O)COC(=O)c2n[nH]c3ccccc23)CC1`, `COc1ccc2[nH]cc(C(O)CN3CCC(C(N)=O)CC3)c2c1` (stereo not drawn) is higher in “hERG current change (%, negative = inhibition) at 10uM” value: 10.8% for the first, 12% for the second.

Compared with `CCCCCOc1ccc(Cn2ccnc2)cc1[N+](=O)[O-].Cl`, `Cc1ccc(CNc2ncnc(N)c2[N+](=O)[O-])cc1` is higher in “hERG current change (%, negative = inhibition) at 10uM” value: -45.4% for the first, 4.56% for the second.

Going from `CC1CCN(c2nc3ccc(C(=O)NCCCN4CCCCC4)cc3s2)CC1` to `Cc1c(C(=O)N2CCC(C)CC2)oc2ccc(S(=O)(=O)N3CCC4(CC3)OCCO4)cc12`, the “hERG current change (%, negative = inhibition) at 10uM” value rises from -50% to -2.35%.

Compared with `Cc1ccc(C(=O)Nc2ccc(C(=O)N/N=C/c3ccncc3)cc2)cc1`, `COc1ccc(NC(=O)c2ccc(Cn3cc(Cl)cn3)cc2)cc1` is lower in “hERG current change (%, negative = inhibition) at 10uM” value: 18.5% for the first, 1.21% for the second.

First: O=S(=O)(NC1CC2CCC1C2)c1ccc(Br)cc1 (stereo not drawn)
Second: COc1ccc(S(=O)(=O)N2CCC(C(=O)NC3CC3)CC2)cc1Cl
The “hERG current change (%, negative = inhibition) at 10uM” value of the first is lower: -4.98% for the first, 7.7% for the second.

Going from `CSCCC(NS(=O)(=O)c1ccc2c(c1)OCCO2)C(=O)N(C)Cc1ccc(C)cc1` (stereo not drawn) to `Cc1ccc(CNC(=O)C2(S(=O)(=O)c3ccccc3)CC=CC2)cc1`, the “hERG current change (%, negative = inhibition) at 10uM” value falls from -3.42% to -13.2%.

First: O=C(NNC(=S)Nc1ccc(F)cc1)C1CC1c1ccc(Cl)cc1 (stereo not drawn)
Second: O=C(Nc1ccc(N2CCOCC2)cc1)C1CC(=O)N(c2ccc(F)cc2)C1 (stereo not drawn)
The “hERG current change (%, negative = inhibition) at 10uM” value of the first is lower: -33.2% for the first, 5.93% for the second.

First: CCCC(=O)OCC(=O)c1[nH]c(C)c(C(C)=O)c1C
Second: CCOC(=O)C1=C(NC(=S)NC(=O)c2ccccc2)c2ccccc2CC1(C)CC (stereo not drawn)
The “hERG current change (%, negative = inhibition) at 10uM” value of the first is higher: 11.4% for the first, 3.16% for the second.

Going from `O=C1CCCc2c1nc(-c1ccco1)n2O` to `O=C(Nc1cc(Cl)ccc1Cl)c1noc2c1CCCC2`, the “hERG current change (%, negative = inhibition) at 10uM” value rises from 12.1% to 12.4%.

First: O=C1N[C@H](C(=O)O)CS1
Second: CC1CCc2c(sc(N)c2C(N)=O)C1 (stereo not drawn)
The “hERG current change (%, negative = inhibition) at 10uM” value of the first is higher: -1.57% for the first, -4.13% for the second.

Compared with `CCN(CC)S(=O)(=O)c1cccc(-c2nnc(SCC(N)=O)n2N)c1`, `CCOC(=O)CSc1nnnn1-c1cccc2ccccc12` is higher in “hERG current change (%, negative = inhibition) at 10uM” value: -28.9% for the first, -5.25% for the second.

Going from `CCCC1N2CC3([N+](=O)[O-])CN1CC([N+](=O)[O-])(C2)C3(C)C` (stereo not drawn) to `CCOC(=O)/C(=N\Nc1ccc(Br)cc1)N1CC(C)OC(C)C1` (stereo not drawn), the “hERG current change (%, negative = inhibition) at 10uM” value falls from -1.89% to -42.3%.

First: CCC1CCCCN1S(=O)(=O)c1ccc(S(=O)(=O)N(Cc2ccccn2)CC2CCCO2)cc1 (stereo not drawn)
Second: O=C(NCC1CCCO1)c1ccc2c(=O)n(Cc3ccc(Cl)cc3)c(=S)[nH]c2c1 (stereo not drawn)
The “hERG current change (%, negative = inhibition) at 10uM” value of the first is lower: -6.23% for the first, 6.02% for the second.

Compared with `Cc1cc(CN2CCCCC2)oc1C(=O)O.Cl`, `COc1ccc(OCC(=O)OC(C)CN2CCCCC2)cc1` (stereo not drawn) is higher in “hERG current change (%, negative = inhibition) at 10uM” value: -9.14% for the first, 12.1% for the second.

Going from `Cc1ccc(C)c(-n2nnnc2Sc2nc([N+](=O)[O-])nn2C)c1` to `COc1ccc(-c2csc(NC(=O)c3c(C)noc3C)n2)cc1`, the “hERG current change (%, negative = inhibition) at 10uM” value rises from -22.5% to -8.91%.

Compared with `COC(=O)c1ccccc1Sc1ncnc2onc(C)c12`, `CN(C)c1ccc(CC(=O)c2nc3ccccc3s2)cc1` is higher in “hERG current change (%, negative = inhibition) at 10uM” value: 1.26% for the first, 11.5% for the second.

Compared with `O=C(Nc1ccc(Cc2ccc(NC(=O)C3CC3)cc2)cc1)C1CC1`, `CC(C)c1ccc(C(=O)Nc2ccc(CN3CCOCC3)cc2)cc1` is lower in “hERG current change (%, negative = inhibition) at 10uM” value: 22.7% for the first, -48.3% for the second.

Compared with `O=C(O)/C(=C1/OC(=O)c2ccccc21)c1ccccc1`, `COc1ccccc1NC(=O)CN(c1ccccc1C)S(C)(=O)=O` is lower in “hERG current change (%, negative = inhibition) at 10uM” value: 12.4% for the first, 11.2% for the second.

Compared with `Nc1cccc(S(=O)(=O)Nc2ccc(SC(F)F)cc2)c1`, `COc1ccc(C2Nc3ccccc3C(=O)N2NS(=O)(=O)c2ccc(C)cc2)c(OC)c1` (stereo not drawn) is lower in “hERG current change (%, negative = inhibition) at 10uM” value: 4.81% for the first, 3.22% for the second.

Going from `CN(C)NC(=O)c1cccc(Cl)c1` to `CC(C)CC(=O)/C=C/n1c(=S)oc2ccccc21`, the “hERG current change (%, negative = inhibition) at 10uM” value falls from 18.4% to 7.85%.

Compared with `CC1(C(=O)OCc2cc(=O)n3cc(Br)ccc3n2)CC1(Cl)Cl` (stereo not drawn), `CCn1cc(S(=O)(=O)NCc2ccccc2Br)cn1` is higher in “hERG current change (%, negative = inhibition) at 10uM” value: -54.3% for the first, -1.6% for the second.

First: CCCCCNC(=O)c1ccc2c(=O)[nH]c3c(C(=O)NCC4CCCO4)sc(=S)n3c2c1 (stereo not drawn)
Second: CC(=O)c1ccc(NC(=O)C2=CC(c3cccs3)=NS(=O)(=O)N2C)cc1
The “hERG current change (%, negative = inhibition) at 10uM” value of the first is lower: -4.56% for the first, -0.218% for the second.

Compared with `Cc1ccnn1CC(=O)N/N=C/c1ccc2c(c1)OCO2`, `CC(C)n1c(=O)c(C=Nc2ccc(Br)cc2)c(O)n(Cc2ccco2)c1=O` is higher in “hERG current change (%, negative = inhibition) at 10uM” value: -7.72% for the first, 9.14% for the second.

First: COC(=O)C(C)(C)ONC(=O)Nc1ccc([N+](=O)[O-])cc1
Second: O=C1C(Cl)=C(N2CCOCC2)C(=O)N1c1ccc(Br)cc1
The “hERG current change (%, negative = inhibition) at 10uM” value of the first is lower: -0.166% for the first, 14.8% for the second.
